Source: ChEMBL document CHEMBL4346670, “Discovery of Novel Janus Kinase (JAK) and Histone Deacetylase (HDAC) Dual Inhibitors for the Treatment of Hematological Malignancies” (J Med Chem, 2019)

Assays:
[1] = target: Protein deacetylase HDAC6 (Homo sapiens) (UniProt Q9UBN7); assay: Inhibition of HDAC6 in human MDA-MB-231 cells assessed as increase in acetyl alpha tubulin level at 5 to 10 uM after 12 hrs by Western blot analysis; type: cell-based
Procedure, shortened: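 MDA-MB-231 cells treated with compound or DMSO for 12 h, then lysed in SDS buffer and cleared by centrifugation. Lysate resolved by SDS-PAGE and transferred to nitrocellulose. Immunoblotted for p-STAT3 (Tyr705), total STAT3, acetyl-α-tubulin and acetyl-histone H3, with GAPDH as loading control. Detection by enhanced chemiluminescence.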

K562 = assay: Induction of apoptosis in human K562 cells assessed as necrotic apoptotic cells at 0.5 uM after 24 hrs by Annexin-V/propidium iodide staining-based flow cytometric analysis (reference value: 0.827%); type: functional
[2] = Half life in human liver microsomes at 1 uM in presence of UDPGA cofactor for phase 2 metabolism and measured upto 60 mins by LC-MS/MS analysis; type: ADME, Microsome
Procedure, shortened: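 Liver microsomes (rat or human) incubated with compound at 37 °C, with NADPH for phase I or UDPGA for phase II. Reactions stopped in acetonitrile at set time points, vortexed 5 min, stored at -80 °C. Parent remaining in supernatant measured by LC-MS/MS. t1/2 = -0.693/k, with k the slope of ln fraction remaining versus time.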

[3] = target: Tyrosine-protein kinase ABL1 (Homo sapiens) (UniProt P00519); assay: Inhibition of recombinant human ABL1 at 20 nM using Ulight-TK peptide as substrate measured after 30 mins by LANCE assay relative to control
Procedure, shortened: (§1)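 Human recombinant kinases tested at 20 nM and 200 nM compound in an outsourced panel of 85 kinases. Activity measured as phosphorylation of a ULight-labelled substrate by LANCE detection, expressed as inhibition relative to control.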

[4] = target: Tyrosine-protein kinase ABL2 (Homo sapiens) (UniProt P42684); assay: Inhibition of recombinant human ARG at 200 nM using Ulight-TK peptide as substrate measured after 60 mins by LANCE assay relative to control; procedure, shortened: as §1
[5] = target: Tyrosine-protein kinase Lyn (Homo sapiens) (UniProt P07948); assay: Inhibition of recombinant human LYN A at 200 nM using biotinyl-beta amyloid-beta amyloid-beta AKVEKIGEGTYGVVYK after 120 mins by HTRF method relative to control
[6] = target: Calcium/calmodulin-dependent protein kinase type 1 (Homo sapiens) (UniProt Q14012); assay: Inhibition of recombinant human CAMK1alpha at 200 nM using CREBtide as substrate measured after 30 mins by LANCE assay relative to control
Procedure, shortened: (§2)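 Single-concentration screen within an 85-kinase panel run by a contract lab, with each compound tested at 20 nM and 200 nM. Human recombinant enzymes were used. Activity was quantified as phosphorylation of a peptide substrate read by LANCE time-resolved detection, and inhibition was expressed relative to control, using the same format as the JAK assay.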

[7] = target: Mast/stem cell growth factor receptor Kit (Homo sapiens) (UniProt P10721); assay: Inhibition of recombinant human c-KIT at 20 nM using Ulight-TK peptide as substrate measured after 30 mins by LANCE assay relative to control
[8] = target: Hepatocyte growth factor receptor (Homo sapiens) (UniProt P08581); assay: Inhibition of recombinant human c-MET at 20 nM using Ulight-CAGAGAIETDKEYYTVKD as substrate measured after 60 mins by LANCE method relative to control
[9] = target: Mitogen-activated protein kinase 3 (Homo sapiens) (UniProt P27361); assay: Inhibition of recombinant human ERK1 at 200 nM using Ulight-CFFKNIVTPRTPPPSQGK-amide as substrate measured after 30 mins by LANCE method relative to control; procedure, shortened: as §2
[10] = target: Receptor tyrosine-protein kinase erbB-2 (Homo sapiens) (UniProt P04626); assay: Inhibition of recombinant human ERBB2 at 200 nM using biotinyl-beta amyloid-beta amyloid-beta AAEEEEYFELVAKKK after 10 mins by HTRF method relative to control
[11] = target: Inhibitor of nuclear factor kappa-B kinase subunit alpha (Homo sapiens) (UniProt O15111); assay: Inhibition of recombinant human IKKalpha at 20 nM using Ulight-IkappaB-alpha as substrate measured after 30 mins by LANCE method relative to control
Procedure, shortened: (§3)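 Part of an 85-kinase selectivity panel run by a contract lab, with the test compound at 20 nM and at 200 nM. Each human recombinant kinase's phosphorylation of its peptide substrate was measured following the JAK assay method. Activity is given as percent inhibition.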

[12] = target: Tyrosine-protein kinase Lck (Homo sapiens) (UniProt P06239); assay: Inhibition of recombinant human LCK at 200 nM using Ulight-Poly GAT[EAY(1:1:1)] as substrate measured after 10 mins by LANCE method relative to control; procedure, shortened: as §3
[13] = target: Serine/threonine-protein kinase MARK1 (Homo sapiens) (UniProt Q9P0L2); assay: Inhibition of recombinant human MARK1 at 20 nM using Ulight-RRRSLLE as substrate measured after 30 mins by LANCE method relative to control; procedure, shortened: as §3
[14] = target: Platelet-derived growth factor receptor alpha (Homo sapiens) (UniProt P16234); assay: Inhibition of recombinant human PDGFRalpha at 20 nM using Ulight-TK peptide as substrate measured after 60 mins by LANCE assay relative to control; procedure, shortened: as §3
[15] = target: 3-phosphoinositide-dependent protein kinase 1 (Homo sapiens) (UniProt O15530); assay: Inhibition of recombinant human PDK1 at 200 nM using Ulight-FLGFTYVAP as substrate measured after 90 mins by LANCE method relative to control
[16] = target: Protein-tyrosine kinase 2-beta (Homo sapiens) (UniProt Q14289); assay: Inhibition of recombinant human PYK2 at 20 nM using Ulight-TK peptide as substrate measured after 15 mins by LANCE method relative to control
[17] = target: Proto-oncogene tyrosine-protein kinase receptor Ret (Homo sapiens) (UniProt P07949); assay: Inhibition of recombinant human RET at 20 nM using biotinyl-beta amyloid-beta amyloid-beta AAEEEEYFELVAKKK as substrate after 30 mins by HTRF method relative to control
[18] = target: Proto-oncogene tyrosine-protein kinase receptor Ret (Homo sapiens) (UniProt P07949); assay: Inhibition of recombinant human RET at 200 nM using biotinyl-beta amyloid-beta amyloid-beta AAEEEEYFELVAKKK as substrate after 30 mins by HTRF method relative to control
[19] = target: Testis-specific serine/threonine-protein kinase 1 (Homo sapiens) (UniProt Q9BXA7); assay: Inhibition of recombinant human TSSK1 at 200 nM using Ulight-RRRSLLE as substrate measured after 60 mins by LANCE method relative to control
[20] = target: Receptor-type tyrosine-protein kinase FLT3 (Homo sapiens) (UniProt P36888); assay: Inhibition of recombinant human FLT3 at 200 nM using Ulight-TK peptide as substrate measured after 60 mins by LANCE assay relative to control; procedure, shortened: as §2
[21] = target: MAP kinase-interacting serine/threonine-protein kinase 1 (Homo sapiens) (UniProt Q9BUB5); assay: Inhibition of recombinant human MNK1 at 20 nM using CREBtide as substrate measured after 60 mins by LANCE assay relative to control; procedure, shortened: as §3
Chain of UniProt Q9BUB5 (Q9BUB5 whole entry, looked up): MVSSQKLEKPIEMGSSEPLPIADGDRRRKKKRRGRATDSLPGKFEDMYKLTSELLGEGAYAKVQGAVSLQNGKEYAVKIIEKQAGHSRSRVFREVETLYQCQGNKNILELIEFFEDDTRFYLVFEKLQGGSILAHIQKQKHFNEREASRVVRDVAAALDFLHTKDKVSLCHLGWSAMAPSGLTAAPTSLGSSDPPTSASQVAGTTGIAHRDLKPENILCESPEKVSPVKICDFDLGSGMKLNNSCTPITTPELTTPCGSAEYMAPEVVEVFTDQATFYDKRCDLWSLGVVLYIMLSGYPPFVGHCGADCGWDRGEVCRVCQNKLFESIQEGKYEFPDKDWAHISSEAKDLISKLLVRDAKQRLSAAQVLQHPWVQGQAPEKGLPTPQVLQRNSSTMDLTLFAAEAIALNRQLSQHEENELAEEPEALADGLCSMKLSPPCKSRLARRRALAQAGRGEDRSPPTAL

Chain of UniProt P07949 (P07949 whole entry): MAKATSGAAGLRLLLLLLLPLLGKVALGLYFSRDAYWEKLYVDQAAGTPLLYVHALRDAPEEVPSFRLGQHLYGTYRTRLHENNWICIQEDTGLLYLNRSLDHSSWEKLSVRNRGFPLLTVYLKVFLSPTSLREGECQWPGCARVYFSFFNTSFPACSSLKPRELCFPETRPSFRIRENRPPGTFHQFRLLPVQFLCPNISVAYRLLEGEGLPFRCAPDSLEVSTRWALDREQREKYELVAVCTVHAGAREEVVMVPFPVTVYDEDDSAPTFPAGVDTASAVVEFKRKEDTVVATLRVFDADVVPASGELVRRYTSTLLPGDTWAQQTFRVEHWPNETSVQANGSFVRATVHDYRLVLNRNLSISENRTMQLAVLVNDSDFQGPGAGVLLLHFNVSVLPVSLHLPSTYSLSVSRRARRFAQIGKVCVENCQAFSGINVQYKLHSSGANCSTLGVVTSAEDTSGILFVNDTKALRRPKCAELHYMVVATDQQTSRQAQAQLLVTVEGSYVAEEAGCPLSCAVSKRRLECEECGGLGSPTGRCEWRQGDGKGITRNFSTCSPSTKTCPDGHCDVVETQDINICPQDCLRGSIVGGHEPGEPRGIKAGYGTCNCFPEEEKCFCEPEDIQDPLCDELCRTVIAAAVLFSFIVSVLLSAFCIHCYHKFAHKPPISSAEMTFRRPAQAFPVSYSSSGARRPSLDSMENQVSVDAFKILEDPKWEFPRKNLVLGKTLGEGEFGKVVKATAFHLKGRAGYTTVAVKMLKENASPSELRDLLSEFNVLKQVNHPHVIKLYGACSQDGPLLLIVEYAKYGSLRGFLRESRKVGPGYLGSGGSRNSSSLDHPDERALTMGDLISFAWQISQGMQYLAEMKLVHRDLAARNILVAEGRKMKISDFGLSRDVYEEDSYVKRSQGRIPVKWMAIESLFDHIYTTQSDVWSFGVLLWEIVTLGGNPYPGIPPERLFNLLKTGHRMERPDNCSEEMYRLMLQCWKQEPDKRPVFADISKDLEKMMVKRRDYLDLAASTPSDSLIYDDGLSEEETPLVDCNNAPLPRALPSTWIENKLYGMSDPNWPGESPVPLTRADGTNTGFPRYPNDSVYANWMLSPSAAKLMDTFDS
Chain of UniProt Q9BXA7 (Q9BXA7 whole entry): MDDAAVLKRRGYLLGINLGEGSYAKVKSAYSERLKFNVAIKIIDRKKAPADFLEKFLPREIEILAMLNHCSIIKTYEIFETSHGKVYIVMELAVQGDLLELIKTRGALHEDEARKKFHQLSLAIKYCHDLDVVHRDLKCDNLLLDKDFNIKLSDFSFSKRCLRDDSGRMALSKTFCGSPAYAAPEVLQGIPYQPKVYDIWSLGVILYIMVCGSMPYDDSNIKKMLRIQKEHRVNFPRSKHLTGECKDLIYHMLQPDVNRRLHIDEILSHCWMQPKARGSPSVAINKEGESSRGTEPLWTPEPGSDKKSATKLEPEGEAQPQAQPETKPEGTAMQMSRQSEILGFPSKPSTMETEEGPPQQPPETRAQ
Chain of UniProt P06239 (P06239 whole entry, looked up): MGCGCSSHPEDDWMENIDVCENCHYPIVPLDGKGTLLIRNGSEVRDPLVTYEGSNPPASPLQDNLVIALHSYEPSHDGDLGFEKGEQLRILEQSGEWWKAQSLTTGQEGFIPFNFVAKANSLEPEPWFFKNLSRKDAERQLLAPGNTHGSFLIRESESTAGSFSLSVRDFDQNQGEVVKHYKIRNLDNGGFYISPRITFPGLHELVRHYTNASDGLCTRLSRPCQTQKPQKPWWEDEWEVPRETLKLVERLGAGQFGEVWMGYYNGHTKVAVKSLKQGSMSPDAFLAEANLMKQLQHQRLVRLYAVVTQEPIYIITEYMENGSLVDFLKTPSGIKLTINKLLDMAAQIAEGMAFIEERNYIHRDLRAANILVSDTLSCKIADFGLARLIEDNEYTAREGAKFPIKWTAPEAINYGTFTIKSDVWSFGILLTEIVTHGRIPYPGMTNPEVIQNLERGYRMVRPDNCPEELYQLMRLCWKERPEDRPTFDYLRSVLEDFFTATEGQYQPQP
Chain of UniProt P08581 (P08581 whole entry): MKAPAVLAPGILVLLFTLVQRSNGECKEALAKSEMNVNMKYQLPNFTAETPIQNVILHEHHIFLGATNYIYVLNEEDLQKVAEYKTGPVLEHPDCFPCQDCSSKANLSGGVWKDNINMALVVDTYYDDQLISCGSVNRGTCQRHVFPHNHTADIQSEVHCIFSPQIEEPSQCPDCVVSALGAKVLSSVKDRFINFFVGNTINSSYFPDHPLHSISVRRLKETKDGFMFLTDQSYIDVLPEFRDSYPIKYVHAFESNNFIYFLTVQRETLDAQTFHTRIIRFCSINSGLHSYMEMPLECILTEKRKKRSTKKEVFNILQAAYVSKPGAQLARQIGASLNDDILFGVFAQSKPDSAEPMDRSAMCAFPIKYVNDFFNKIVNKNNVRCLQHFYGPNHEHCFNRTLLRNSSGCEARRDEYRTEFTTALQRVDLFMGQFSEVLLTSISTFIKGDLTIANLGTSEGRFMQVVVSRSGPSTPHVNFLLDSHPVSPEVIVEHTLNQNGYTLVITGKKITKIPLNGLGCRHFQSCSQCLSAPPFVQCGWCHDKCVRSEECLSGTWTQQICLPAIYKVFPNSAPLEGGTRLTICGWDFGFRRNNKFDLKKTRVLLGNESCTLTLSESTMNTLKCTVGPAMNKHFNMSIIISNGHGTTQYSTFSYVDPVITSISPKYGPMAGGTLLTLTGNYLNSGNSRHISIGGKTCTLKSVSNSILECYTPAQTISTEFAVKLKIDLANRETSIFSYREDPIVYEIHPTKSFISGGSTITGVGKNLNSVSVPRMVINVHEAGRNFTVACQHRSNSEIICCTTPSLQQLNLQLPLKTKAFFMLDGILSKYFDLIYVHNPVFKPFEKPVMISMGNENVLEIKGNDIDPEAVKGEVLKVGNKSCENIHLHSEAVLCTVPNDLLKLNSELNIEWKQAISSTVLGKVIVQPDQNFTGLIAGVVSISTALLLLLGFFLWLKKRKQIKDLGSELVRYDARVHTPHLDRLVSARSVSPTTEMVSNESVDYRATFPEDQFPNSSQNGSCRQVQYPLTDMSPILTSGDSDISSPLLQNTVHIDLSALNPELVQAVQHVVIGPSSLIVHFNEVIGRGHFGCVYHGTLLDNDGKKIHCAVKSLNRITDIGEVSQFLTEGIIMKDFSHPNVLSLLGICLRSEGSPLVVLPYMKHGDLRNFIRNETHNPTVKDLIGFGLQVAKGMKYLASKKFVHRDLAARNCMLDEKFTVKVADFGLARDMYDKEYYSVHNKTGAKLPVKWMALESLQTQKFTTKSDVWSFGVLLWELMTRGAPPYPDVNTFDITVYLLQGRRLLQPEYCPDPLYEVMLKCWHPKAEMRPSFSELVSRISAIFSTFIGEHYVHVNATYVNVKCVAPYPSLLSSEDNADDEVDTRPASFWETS
Chain of UniProt Q14289 (Q14289 whole entry, looked up): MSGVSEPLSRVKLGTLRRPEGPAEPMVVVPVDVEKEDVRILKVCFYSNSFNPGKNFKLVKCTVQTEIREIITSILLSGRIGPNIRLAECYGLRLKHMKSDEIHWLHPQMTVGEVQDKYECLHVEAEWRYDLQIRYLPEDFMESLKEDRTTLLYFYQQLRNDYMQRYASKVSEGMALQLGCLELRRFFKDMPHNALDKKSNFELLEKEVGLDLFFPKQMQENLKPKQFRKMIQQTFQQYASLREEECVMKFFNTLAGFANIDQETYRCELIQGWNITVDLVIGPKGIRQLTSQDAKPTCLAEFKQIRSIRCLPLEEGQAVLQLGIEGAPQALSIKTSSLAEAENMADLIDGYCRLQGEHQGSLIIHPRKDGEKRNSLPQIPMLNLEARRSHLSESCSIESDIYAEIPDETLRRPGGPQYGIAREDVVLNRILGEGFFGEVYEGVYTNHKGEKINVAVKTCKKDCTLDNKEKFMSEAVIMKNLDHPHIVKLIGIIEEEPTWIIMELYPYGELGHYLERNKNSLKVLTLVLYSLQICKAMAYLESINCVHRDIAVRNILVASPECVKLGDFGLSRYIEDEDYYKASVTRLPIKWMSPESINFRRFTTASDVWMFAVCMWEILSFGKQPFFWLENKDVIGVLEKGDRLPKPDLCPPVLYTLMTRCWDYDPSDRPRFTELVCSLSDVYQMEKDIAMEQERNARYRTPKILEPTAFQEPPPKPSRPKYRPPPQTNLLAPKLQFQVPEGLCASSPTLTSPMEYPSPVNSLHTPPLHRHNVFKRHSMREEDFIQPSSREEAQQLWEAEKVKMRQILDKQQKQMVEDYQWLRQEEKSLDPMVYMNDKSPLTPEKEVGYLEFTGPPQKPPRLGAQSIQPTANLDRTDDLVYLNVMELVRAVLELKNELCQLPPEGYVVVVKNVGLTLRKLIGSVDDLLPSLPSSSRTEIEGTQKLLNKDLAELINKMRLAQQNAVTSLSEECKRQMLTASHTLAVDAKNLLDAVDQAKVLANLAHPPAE

- inhibition [1]: Active
- half-life at 1 µM [2]: 6.02 h
- inhibition [3]: 3%
- inhibition [4]: 30%
- inhibition [5]: 11%
- inhibition [6]: 8%
- inhibition [7]: 6%
- inhibition [8]: 5%
- inhibition [9]: 0%
- inhibition [10]: 0%
- inhibition [11]: 8%
- inhibition [12]: 1%
- inhibition [13]: 8%
- inhibition [14]: 47%
- inhibition [15]: 15%
- inhibition [16]: 1%
- inhibition [17]: 92%
- inhibition [18]: 99%
- inhibition [19]: 19%
- inhibition [20]: 95%
- inhibition [21]: 0%
SMILES: O=C(CCCCCn1cc(Nc2ncc(Cl)c(Nc3ccc(Cl)cc3)n2)cn1)NO
- Activity (K562): 1.34%

Active and inactive are the calls of the source. The rule behind the calls is not given here.
